This note sets out measurements from article PMC4336329 (PLoS ONE, 2015).

SMILES strings stand for the structures. About 2,200 (0.71%) of roughly 310,000 compounds showed an effect of 50% or more. The effect is printed as a negative number. The list shows a part of the results.

This experiment deals with human ether-à-go-go-related gene (hERG) potassium channel (human, UniProt Q12809). The experiment in a line: primary screen, population patch clamp on CHO cells stably expressing hERG.
human ether-à-go-go-related gene (hERG) potassium channel, sequence (Q12809 whole entry, looked up): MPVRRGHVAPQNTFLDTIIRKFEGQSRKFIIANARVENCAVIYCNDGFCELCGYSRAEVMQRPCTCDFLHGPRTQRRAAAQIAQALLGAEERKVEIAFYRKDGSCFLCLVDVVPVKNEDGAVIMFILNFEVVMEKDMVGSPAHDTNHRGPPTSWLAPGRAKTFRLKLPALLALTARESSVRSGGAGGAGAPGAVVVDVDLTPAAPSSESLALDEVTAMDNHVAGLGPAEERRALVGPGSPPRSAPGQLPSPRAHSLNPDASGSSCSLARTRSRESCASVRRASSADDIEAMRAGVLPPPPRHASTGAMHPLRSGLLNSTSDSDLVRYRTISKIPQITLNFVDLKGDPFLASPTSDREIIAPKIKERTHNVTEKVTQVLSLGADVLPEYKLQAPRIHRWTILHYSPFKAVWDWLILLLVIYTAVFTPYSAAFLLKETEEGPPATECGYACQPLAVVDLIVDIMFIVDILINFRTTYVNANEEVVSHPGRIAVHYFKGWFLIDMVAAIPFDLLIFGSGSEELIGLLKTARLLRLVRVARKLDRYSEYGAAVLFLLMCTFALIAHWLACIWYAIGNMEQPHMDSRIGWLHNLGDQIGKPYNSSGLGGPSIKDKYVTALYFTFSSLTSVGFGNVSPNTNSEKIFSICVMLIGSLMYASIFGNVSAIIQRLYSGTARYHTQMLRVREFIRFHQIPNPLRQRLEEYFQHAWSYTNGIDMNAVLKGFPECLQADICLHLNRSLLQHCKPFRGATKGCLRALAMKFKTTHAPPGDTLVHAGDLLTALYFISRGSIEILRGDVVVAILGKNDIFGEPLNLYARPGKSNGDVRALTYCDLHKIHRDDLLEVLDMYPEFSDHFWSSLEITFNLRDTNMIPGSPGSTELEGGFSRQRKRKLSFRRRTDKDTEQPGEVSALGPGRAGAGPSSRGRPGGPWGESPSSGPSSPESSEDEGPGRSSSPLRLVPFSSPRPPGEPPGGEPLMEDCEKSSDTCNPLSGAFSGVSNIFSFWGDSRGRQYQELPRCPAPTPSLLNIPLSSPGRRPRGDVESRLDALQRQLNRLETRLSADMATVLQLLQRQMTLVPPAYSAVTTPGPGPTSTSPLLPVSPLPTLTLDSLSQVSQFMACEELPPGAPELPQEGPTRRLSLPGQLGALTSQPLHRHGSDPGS
On to `CCCNC(=O)Nc1ccccc1C(=O)Nc1ccc(OC)cc1`, for which the “hERG current change (%, negative = inhibition) at 1uM” value stood at 5.37%.
For `O=C(CSCc1ccccc1)N/N=C/c1ccc(OCC(=O)N2CCCCC2)cc1` the value was 8.86%.
For `Cc1onc(-c2ccc3c(c2)OCO3)c1-c1ccc2[nH]ccc2c1` the value was 1.52%; for `Cn1c(Cn2c(=O)sc3ccccc32)nnc1SCC(=O)NCC1CCCO1` (stereo not shown), 11.3%.
For `CC(C)CN(C(=O)COC(=O)c1ccc(-c2ccccc2)cc1)C1CCS(=O)(=O)C1` (stereo not shown) the value was 4.42%.
For the molecule `O=C(NC1CCN(Cc2nnnn2CCc2ccccc2)CC1)c1ccccc1F`, the “hERG current change (%, negative = inhibition) at 1uM” value is reported as 8.6%.
Turning to `Cc1ccc(OCC(=O)NCCO)c(Br)c1`, the “hERG current change (%, negative = inhibition) at 1uM” value was determined as 11.3%.
For `Cc1ccc(OCC(=O)NC2CCS(=O)(=O)C2)c([N+](=O)[O-])n1` (stereo not shown) the value was 16.7%; for `CN(C)c1ccc(C2/C(=C(/O)c3ccccc3)C(=O)C(=O)N2CCCC(=O)O)cc1` (stereo not shown), 4.49%; for `CCC1(C)Cc2c(sc3nn[nH]c(=O)c23)CO1` (stereo not shown), 2.53%.
With `CS(=O)(=O)N(CC(N)=O)Cc1ccc(Cl)cc1`, the “hERG current change (%, negative = inhibition) at 1uM” value is 1.43%.
Next, `COc1ccc(C(=O)Nc2cnccn2)cc1[N+](=O)[O-]`: 12.2%; `O=S(=O)(NC1CCCCC1)c1ccc(Cl)nc1`: 7.56%.
For `COc1ccc(C2=NN(C(=O)CSc3ncccn3)C(c3ccc(OC)cc3)C2)cc1` (stereo not shown) the value was 2.55%; for `CS(=O)(=O)c1ccc2nc(NC(=O)C3CCCO3)sc2c1` (stereo not shown), 4.57%; for `CN(C(=S)Nc1ccccc1F)C1(c2ccccc2Cl)CCCCC1=O` (stereo not shown), 1.76%.
For `COc1cccc(/C=C/C(=O)NCCc2ccc(OC)c(OC)c2)c1` the value was 5.32%.
As to `O=C(OCc1c(-c2ccccc2)ncc2ccccc12)c1cccc(Br)c1`, the “hERG current change (%, negative = inhibition) at 1uM” value is given as 4.74%.
Take `CCC(C)n1c(O)c(C(c2ccccn2)c2c(O)n(C(C)CC)c(=S)[nH]c2=O)c(=O)[nH]c1=S` (stereo not shown): the “hERG current change (%, negative = inhibition) at 1uM” value amounted to 9.43%.
For `O=C(NCc1ccccc1)c1ccccc1-c1nc2ccccc2[nH]1`, the “hERG current change (%, negative = inhibition) at 1uM” value came out at 14.8%.
On to `c1ccn2cc(CSC3=NCCS3)nc2c1`, for which the “hERG current change (%, negative = inhibition) at 1uM” value was found to be 18.9%.
For `CC(C)(O)[C@H]1Cc2cc3ccc(=O)oc3cc2O1` the value was 14.7%; for `C#CCOc1ccc2ccccc2c1/C=C(/C#N)c1ccc(C(=O)O)cc1`, 13.1%; for `CCOc1ccc(OCCCC(=O)N(CC)CC(=O)Nc2c(F)cccc2F)cc1`, 7.12%.
Next, `CC(C)C(=O)Nc1nnc(-c2ccccc2)o1`: 4.79%; `CN(CC(=O)Nc1cccc(F)c1)C(=O)c1ccc(-c2ccc(Cl)cc2)o1`: 14.4%; `COc1ccc(N2CCN(C(=O)CNS(=O)(=O)c3ccc(C)cc3)CC2)cc1`: 10.6%.
`CC(=O)N1CCN(Cc2nc(C(c3ccccc3)c3ccccc3)no2)CC1`: the “hERG current change (%, negative = inhibition) at 1uM” value is 17.8%.
On to `COc1ccc(-c2nnn(CC(=O)NCCc3c[nH]c4ccccc34)n2)cc1OC`, for which the “hERG current change (%, negative = inhibition) at 1uM” value is reported as 5.94%.
Turning to `CNC(=O)c1ccsc1NC(=O)CCS(=O)(=O)c1ccc(F)cc1`, the “hERG current change (%, negative = inhibition) at 1uM” value is recorded as -2.79%.
For `COc1ccc(C(=O)c2ccccc2Cl)cc1` the value was -0.249%; for `Cc1cc(C)cc(NC(=O)C2CCCC2)c1`, 18.7%; for `O=C1NCCN/C1=C\C(=O)c1ccc(F)cc1`, 10.6%.
For `O=C(NC(=S)Nc1ccc(N2CCCC2)cc1)c1ccc(F)cc1` the value was 13.2%; for `CCc1noc(C)c1C(=O)N(CCCOC)c1c(N)n(Cc2ccccc2)c(=O)[nH]c1=O`, 10.3%.
Next, `Nc1nnc(-c2ccc(Cl)c([N+](=O)[O-])c2)s1`: 11.3%.
`COc1ccc(-c2cc(=O)n(-c3nc4ccccc4[nH]3)[nH]2)cc1`: the “hERG current change (%, negative = inhibition) at 1uM” value was -23.9%.
As to `Cc1cccc(-n2ncc3c2CCCC3NC(=O)CCCN2CCCCC2=O)c1C` (stereo not shown), the “hERG current change (%, negative = inhibition) at 1uM” value is 13.4%.
Next, `CC(=O)N1CCN(C(=O)c2ccc(NS(=O)(=O)c3cc(C)ccc3C)cc2)CC1`: 13.8%.
`CC(C)[C@H](N)c1nnc(SC/C=C/c2ccccc2)o1.Cl`: the “hERG current change (%, negative = inhibition) at 1uM” value is on record as 2.27%.
Next, `O=[N+]([O-])c1ccc2[nH]ncc2c1`: 7.88%.
For `COc1nnc(-c2ccc(N3CCCCC3)c(NC(C)=O)c2)c2ccccc12`, the “hERG current change (%, negative = inhibition) at 1uM” value is reported as 16.5%.
For `CCN1CCN(c2cc(C)c3cc(NC(=S)NCCCOC)ccc3n2)CC1` the value was 12.1%; for `COc1cc2c(cc1OC)C(c1cc3cc4c(cc3[nH]c1=O)OCO4)N(C(=O)C(C)C)CC2` (stereo not shown), -0.936%; for `CCCNC(=O)CSc1nnc(C)s1`, 0.416%.
Take `O=C1/C(=C/c2ccc3c(c2)OCO3)Oc2cc(OCC(=O)N3CC(O)C[C@H]3C(=O)O)ccc21` (stereo partly shown): the “hERG current change (%, negative = inhibition) at 1uM” value is -0.626%.
Take `O=C(Nc1ccc2snnc2c1)N1CCSCC1`: the “hERG current change (%, negative = inhibition) at 1uM” value was 12.4%.
Next, `O=C(c1ccc(Cl)s1)N1CCN(c2ncccn2)CC1`: 7.33%; `COc1ccc(CCN2C(=O)C3C4C=CC(C5CC45)C3C2=O)cc1OC` (stereo not shown): 3.53%.
For `CC1C(C(=O)Nc2ccccc2)CCCC1(C)C(=O)O` (stereo not shown) the value was 6.34%; for `CCCc1cn(S(=O)(=O)c2ccc(OC)cc2OC)nc1N`, 6.34%; for `Fc1ccccc1CSc1nncn1NC/C=C/c1ccccc1`, 14.1%.
For `O=C(NCC1(N2CCCCC2)CCCCC1)c1cccc(NS(=O)(=O)c2ccccc2)c1` the value was -34%; for `COc1ccc(CCNC(=O)C2CCCN(c3nc4ccccc4s3)C2)cc1OC` (stereo not shown), 10.4%.
In the case of `O=C(NC1CCCC1)C(c1ccccn1)N(C(=O)c1csnn1)c1ccccc1` (stereo not shown), the “hERG current change (%, negative = inhibition) at 1uM” value was 15.2%.
Take `CC(=O)/C(=N/Nc1ccccc1)Sc1nnc(CCc2ccccc2)n1-c1ccccc1`: the “hERG current change (%, negative = inhibition) at 1uM” value is recorded as -0.859%.
Next, `CC1(C)CC(N2CCCC2)=CC(=[N+]2CCCC2)C1.[I-]`: 2.56%; `Cc1nn(C)cc1S(=O)(=O)NC1CCCC1`: 1.96%; `COc1ccc(-c2noc(N3CCC(C(=O)NCCCN4CCC(C)CC4)CC3)n2)cc1`: -0.816%.
Next, `Cc1ccc(S(=O)(=O)N2CCOCC2)cc1NC(=O)COc1cccc(-n2cnnn2)c1`: 1.93%; `COc1ccc(NC(=O)c2ccc(S(=O)(=O)N(C)c3ccccc3)cc2)cn1`: 1.02%.
Next, `Cc1ccccc1C(=O)c1cccn1CC(=O)N1CCCCCC1`: 7.99%; `CC12CCC(C(=Nc3ccc(N=C4C(=O)C5(C)CCC4C5(C)C)cc3)C1=O)C2(C)C`: 8.42%.
Turning to `CC(C)c1nc2sc(C(=O)O)c(N)c2c2c1CCCC2`, the “hERG current change (%, negative = inhibition) at 1uM” value was found to be 8.77%.
Next, `CCOc1ccc(C2NC(=O)NC(C)=C2[N+](=O)[O-])cc1OC` (stereo not shown): 10.1%; `O=C(Nc1cccc2ncccc12)c1cccnc1`: 15.6%; `CCN1CCN(C(=O)NC(c2ccc(C)c(F)c2)C(Cl)Cl)CC1` (stereo not shown): 4.1%.
Next, `CN(C)c1ccc(/C=C/c2ccc3ccccc3n2)cc1`: 17.2%; `COc1ccc(C2=NO[C@@H]3[C@@H]4C[C@@H]([C@H]5C(=O)N(c6ccc7c(c6)OCO7)C(=O)[C@@H]45)[C@H]23)cc1OC`: 7.53%; `O=C(Nc1ccccc1)C1C2CCCCC21` (stereo not shown): 8.19%.
For `COC(=O)[C@@]12CCCCN1[C@H](c1ccc(SC3CCCCC3)c(OC)c1)[C@@H]1C(=O)N(C)C(=O)[C@@H]12.O=C(O)C(F)(F)F` the value was 10.3%; for `CCOC(=O)N1CCc2c(sc3c2c(=O)n(Cc2ccccc2)c(=O)n3CC(=O)NCCOC)C1`, 15.1%.
`NC(=O)C1CCN(C(=O)CCSCc2ccc(Cl)c(Cl)c2)CC1`: the “hERG current change (%, negative = inhibition) at 1uM” value is listed as 6.63%.
Next, `CC1CCN(CCCNC(=O)C2CCC(CNS(=O)(=O)c3cccc4nsnc34)CC2)CC1` (stereo not shown): 12.9%.
Next, `CC(C)COc1ccc(S(=O)(=O)n2cc(F)c(=O)[nH]c2=O)cc1`: 8.79%; `COc1cccc(-n2c(Cn3nc(C(F)F)cc3C(F)F)n[nH]c2=S)c1`: 9.61%.
Next, `CCOC(=O)C1CCN(C(=S)Nc2ccc(C)cc2)CC1`: 11%; `CC(=O)Nc1ccc(Nc2ncnc3ccccc23)cc1`: 6.75%.
As for `COc1ccccc1N(C)S(=O)(=O)c1ccc(Cl)c(C(=O)N2CCC(C(N)=O)CC2)c1`, the “hERG current change (%, negative = inhibition) at 1uM” value stood at 7.6%.
With `O=C(OCc1nnc(-c2ccccc2)o1)c1cc(F)c(F)cc1Cl`, the “hERG current change (%, negative = inhibition) at 1uM” value was determined as 6.81%.
Consider `COc1ccc(C(C(=O)NCC2CCCO2)N(Cc2cccs2)C(=O)c2snc(C(N)=O)c2N)cc1` (stereo not shown), for which the “hERG current change (%, negative = inhibition) at 1uM” value is 18%.
For `CCN(CC)c1ccc(-n2c(C)c(C(C)=O)c(C(C)=O)c2C)cc1` the value was 17.4%; for `CCOc1ccc(/C=N/NS(=O)(=O)c2ccc(C)cc2)cc1OC`, 15.4%.
Next, `COc1ccc(N2CCN(CC(O)COC(C)(C)C)CC2)cc1.O=C(O)C(=O)O` (stereo not shown): 12.5%.
For `Cc1cc([N+](=O)[O-])nn1CCCC(=O)Nc1sc2c(c1C(N)=O)CCC(C)C2` (stereo not shown) the value was 0.741%.
Turning to `Cc1cc2ncn(S(=O)(=O)c3ccc(S(=O)(=O)N4CCOCC4)cc3)c2cc1C`, the “hERG current change (%, negative = inhibition) at 1uM” value was 4.34%.
As for `O=c1[nH]c(=S)c2c(n1-c1ccccc1)CCC2`, the “hERG current change (%, negative = inhibition) at 1uM” value was 7.19%.
Next, `CCOC(=O)c1ccc(CNC(=O)C2CCC(=O)N(CCc3ccccc3)C2)o1` (stereo not shown): 18%.
